Experimental data from the supplement of paper PMC4166925.
± gives the standard deviation of the averaged measurements. In all, about 33,000 sequences were measured (“E-score (dimensionless, -0.5 to 0.5)”: median about -0.049, highest 2% from about 0.37 on). Some of the results follow.

These sequences were tested on T1, PmTbr T-box DNA-binding domain (GST fusion) (assay: PBM E-score of 8-mer (E-score (dimensionless, -0.5 to 0.5)); Tbr is Tbrain of the sea star Patiria miniata (Pm) or the sea urchin Strongylocentrotus purpuratus (Sp); higher = stronger binding preference; most listed sequences are background and not binding sites). Conditions: the construct has about 5 more residues each side.
T1 sequence: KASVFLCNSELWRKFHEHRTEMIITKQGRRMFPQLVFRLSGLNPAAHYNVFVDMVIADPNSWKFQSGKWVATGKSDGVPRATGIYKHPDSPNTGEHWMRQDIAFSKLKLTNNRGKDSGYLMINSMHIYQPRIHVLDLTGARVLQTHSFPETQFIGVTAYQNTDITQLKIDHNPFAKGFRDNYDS
Procedure: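 Universal protein-binding microarray (Agilent AMADID 016060, 60-bp probes with a 35-bp variable region) incubated with 200 nM GST-fused Patiria miniata Tbr T-box DNA-binding domain (residues 272-466) in PBS pH 7.5. Scored for every ungapped 8-mer (given with its reverse complement) by the Universal PBM Analysis Suite as E-score (modified Wilcoxon-Mann-Whitney enrichment, range -0.5 to 0.5; >0.45 counts as bound) and Z-score of median probe intensity. Two replicate arrays (datasets 1 and 2).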
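Also: 200 nM protein in PBS on universal arrays averaged over duplicate arrays.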

Row | Sequence | PBM E-score of 8-mer
1 | AACTAATC | -0.241 ± 0.053
2 | AACAAGAG | -0.132 ± 0.04
3 | CATGCCAC | 0.171 ± 0.022
4 | AAAATTAA | -0.0941 ± 0.041
5 | CTTTCACA | 0.444 ± 0.0053
6 | GCGGCCTA | 0.00511 ± 0.018
7 | CTACTCAG | -0.135 ± 0.036
8 | TACGTGAA | -0.0139 ± 0.046
9 | CTAAGGGA | -0.17 ± 0.042
10 | AATGCCTG | 0.00523 ± 0.028
11 | AGCGGTCC | -0.143 ± 0.026
12 | CCCGACGG | -0.045 ± 0.07
13 | ATAAGTTC | -0.116 ± 0.031
14 | TATCGCCA | 0.225 ± 0.027
15 | CATCACAA | 0.179 ± 0.006
16 | ACAAGTCT | 0.103 ± 0.044
17 | TATCGACA | 0.26 ± 0.0068
18 | AGACATAT | -0.0508 ± 0.015
19 | CACTCGTC | 0.126 ± 0.052
20 | GAACTACA | 0.0281 ± 0.036
21 | GTGATCCA | 0.00846 ± 0.00087
22 | AAAGCCGG | -0.119 ± 0.14

Row | Sequence | PBM E-score of 8-mer
23 | CGACATCA | -0.0987 ± 0.091
24 | AGCGGCGC | -0.0283 ± 0.055
25 | AGATAGTA | -0.0103 ± 0.026
26 | GGGAGCCA | -0.135 ± 0.14
27 | GCCCTTAA | -0.03775 ± 0.00031
28 | GAAGGGTC | -0.165 ± 0.042
29 | CGGGCAAC | -0.0923 ± 0.024
30 | GTACCACA | 0.000605 ± 0.065
31 | CATAATAG | -0.123 ± 0.0049
32 | CCATATCA | 0.108 ± 0.0076
33 | CGACCCGC | 0.0638 ± 0.034
34 | AGCTTCAT | -0.00536 ± 0.11
35 | ACGCCTGG | 0.236 ± 0.015
36 | GTTTTTTA | -0.146 ± 0.0032
37 | GCTTCTCA | 0.00035 ± 0.019
38 | CCGGTAGG | 0.00648 ± 0.031
39 | AGTCTTTC | -0.0776 ± 0.013
40 | AACTACTC | 0.0553 ± 0.088
41 | CCTCGGGA | -0.0786 ± 0.042
42 | CACTCGGC | 0.134 ± 0.047
43 | AACTTTAC | 0.189 ± 0.013
44 | ATGCACCA | -0.108 ± 0.0049

Row | Sequence | PBM E-score of 8-mer
45 | AAGCGAAT | -0.167 ± 0.0081
46 | CGCGTCCA | 0.0133 ± 0.085
47 | GGATACCC | -0.327 ± 0.049
48 | CGCCTTTC | 0.136 ± 0.032
49 | ATAAATGA | 0.0609 ± 0.074
50 | TAATTGAA | -0.103 ± 0.083
51 | AATCCCAT | -0.259 ± 0.033
52 | GATCCCGC | 0.0206 ± 0.097
53 | CGAGATCG | 0.112 ± 0.0089
54 | AGACGAAA | -0.309 ± 0.015
55 | CCAGCGCC | 0.0641 ± 0.058
56 | CCGAGTCC | -0.105 ± 0.046
57 | AAGATGCA | -0.103 ± 0.042
58 | GGTAGTAA | -0.119 ± 0.024
59 | AAGGTCGA | -0.122 ± 0.069
60 | GGTCGAAC | 0.171 ± 0.0062
61 | AGATTGCG | 0.125 ± 0.017
62 | GCGCGCTA | 0.139 ± 0.038
63 | GTATCTCA | 0.138 ± 0.024
64 | CACCGTCA | 0.185 ± 0.02
65 | CTGGGAAA | 0.02 ± 0.0017
66 | AGTCATAA | -0.174 ± 0.029

Row | Sequence | PBM E-score of 8-mer
67 | CAGAGCTG | 0.0809 ± 0.048
68 | AATCAGAC | -0.278 ± 0.022
69 | AGATGACA | 0.238 ± 0.036
70 | TCATCTAA | 0.0146 ± 0.031
71 | GGAGAAAA | -0.0966 ± 0.046
72 | TATCCGGA | -0.185 ± 0.012
73 | CCACAACG | 0.0105 ± 0.03
74 | CCGGGGCG | -0.0264 ± 0.0056
75 | CAATCGTG | 0.0831 ± 0.044
76 | CATCCACG | -0.116 ± 0.014
77 | GCCATGCA | -0.113 ± 0.0053
78 | ATTCTTTA | 0.0408 ± 0.0071
79 | GCCGTAAA | -0.212 ± 0.073
80 | GTCTAGTA | -0.187 ± 0.038
81 | ATGGCTGC | -0.0427 ± 0.042
82 | ACTAGTTA | -0.00566 ± 0.032
83 | ACGGAACG | -0.065 ± 0.057
84 | CCTAATAC | 0.00426 ± 0.062
85 | TCAGAAGA | -0.146 ± 0.013
86 | CTTATAAA | -0.0152 ± 0.067
